Laboratory results as given in article PMC5267525, “Sec3 promotes the initial binary t-SNARE complex assembly and membrane fusion” (Nature Communications, 2017).
These are yes or no findings as the source states them, for the method shown. For some of these results: Binding seen in cells or lysates may run through a third protein. Some binding calls cover weakened binding; strength is not graded here. One block for each molecule: values may come before it.

Chains of the proteins cited; added tags and fusions are not shown. Residues count along the entry.
UniProt P32854, residues 1-265: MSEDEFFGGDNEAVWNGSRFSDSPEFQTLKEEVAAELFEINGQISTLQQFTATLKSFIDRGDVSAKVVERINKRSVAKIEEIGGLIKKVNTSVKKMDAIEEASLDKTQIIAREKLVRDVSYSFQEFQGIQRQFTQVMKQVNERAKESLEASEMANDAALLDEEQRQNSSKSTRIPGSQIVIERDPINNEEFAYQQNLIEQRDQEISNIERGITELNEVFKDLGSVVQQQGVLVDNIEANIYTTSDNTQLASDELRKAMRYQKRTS
UniProt P19658, residues 358-623: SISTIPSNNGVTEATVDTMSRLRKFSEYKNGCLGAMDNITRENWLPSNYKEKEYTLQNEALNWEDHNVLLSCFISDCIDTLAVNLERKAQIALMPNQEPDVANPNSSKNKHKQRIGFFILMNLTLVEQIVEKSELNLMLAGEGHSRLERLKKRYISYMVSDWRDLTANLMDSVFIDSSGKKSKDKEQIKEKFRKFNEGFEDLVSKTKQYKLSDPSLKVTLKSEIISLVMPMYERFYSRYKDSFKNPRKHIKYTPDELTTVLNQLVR
UniProt P40357, residues 414-651: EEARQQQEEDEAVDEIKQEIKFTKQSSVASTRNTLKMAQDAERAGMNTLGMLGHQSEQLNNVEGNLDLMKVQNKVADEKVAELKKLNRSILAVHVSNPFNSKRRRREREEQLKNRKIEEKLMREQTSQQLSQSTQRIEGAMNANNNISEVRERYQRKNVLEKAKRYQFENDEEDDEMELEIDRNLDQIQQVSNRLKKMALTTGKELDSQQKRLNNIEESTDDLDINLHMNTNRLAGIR

Key:
[1] = molecular target: GST-tagged cytosolic domain of Sso2 (a.a. 1–270) (yeast) (UniProt P39926); assay: pull-down; 20 microlitres of rabbit reticulocyte lysate with [35S]-labelled in vitro translated Sec3, 2 μM GST-tagged cytosolic domains of Sso2 or Pep12; SDS-PAGE and autoradiography; only the target purified
[2] = molecular target: GST-tagged cytosolic domain of Pep12 (a.a. 1–265) (yeast) (UniProt P32854); assay: as above
[3] = molecular target: T1, GST-Sec3N (Sec3 N-terminus, a.a. 1–320) (yeast, UniProt P33332 1-320); assay: pull-down; GST-Sec3N on glutathione Sepharose with His6-Sso2 or His6-Sec9C, or with both in three orders of addition (simultaneous; Sec3N and Sso2 pre-incubated 30 min; Sso2 and Sec9C pre-incubated 2 h); 5 μg His6-Sec9C; Coomassie blue; both purified
T1 construct: Sec3, yeast exocyst subunit, N-terminus a.a; 1-320; also called pG1860; source: E. coli BL21(DE3), purified (Glutathione Sepharose 4B)
T1 sequence (looked up): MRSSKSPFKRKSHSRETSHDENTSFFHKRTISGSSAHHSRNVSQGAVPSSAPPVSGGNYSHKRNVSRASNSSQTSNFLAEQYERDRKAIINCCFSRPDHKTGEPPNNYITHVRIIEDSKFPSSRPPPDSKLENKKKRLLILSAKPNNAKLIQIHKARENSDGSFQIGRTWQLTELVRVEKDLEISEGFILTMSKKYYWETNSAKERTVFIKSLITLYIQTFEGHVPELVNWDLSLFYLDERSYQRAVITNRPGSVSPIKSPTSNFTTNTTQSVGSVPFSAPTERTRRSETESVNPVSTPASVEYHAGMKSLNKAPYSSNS

[4] = molecular target: Sso2 reconstituted in liposomes (yeast) (UniProt P39926); assay: co-sedimentation; liposomes containing Sso2 incubated with Sec9C in the presence or absence of Sec3N at 25 °C for 30 min; liposomes collected by sedimentation; SDS-PAGE, Coomassie blue; Sso2-free liposomes as control; both purified
[5] = molecular target: myc-tagged Sec3 expressed under the endogenous SEC3 promoter (yeast) (UniProt P33332); assay: co-IP; yeast cell lysates of a strain with Sec3-myc, anti-myc antibodies; Sso2 detected by the anti-Sso2 antibody; untagged strain as control
[6] = molecular target: GST-tagged Exo70 fragment (a.a. 358–623) (yeast) (UniProt P19658); assay: pull-down; GST fusion proteins (12 μg) coupled to glutathione Sepharose 4B; His6-Sso2 2 μM added, 25 °C for 2 h; three washes in PBS; SDS-PAGE, Coomassie blue; both purified

binding [1]: binds
binding [2]: no binding (tested: 2 μM GST-Pep12)
Molecule: Full-length Sec3, in vitro translated (from UniProt P33332 1-1336)

Molecule: His6-Sec9C (a.a. 414–651) (from UniProt P40357 414-651) (domain or fragment)
binding [3]: no binding (tested: 5 μg of His6-tagged Sec9C)

binding [4]: binds
Molecule: Sec9C used in liposome assays (from UniProt P40357 414-651) (domain or fragment)

binding [5]: binds
Molecule: Sso2 (endogenous, yeast lysate) (from UniProt P39926 1-295)

binding [3]: no binding
Molecule: Sso2–Sec9C binary t-SNARE complex (His6-Sso2 and His6-Sec9C pre-incubated) (from UniProt P39926 1-270; P40357 414-651)

binding [6]: no binding (tested: 2 μM His6-Sso2)
B1: His6-Sso2 (cytosolic domain, a.a. 1–270) (domain or fragment, yeast, UniProt P39926 1-270, looked up)
chain: MSNANPYENNNPYAENYEMQEDLNNAPTGHSDGSDDFVAFMNKINSINANLSRYENIINQIDAQHKDLLTQVSEEQEMELRRSLDDYISQATDLQYQLKADIKDAQRDGLHDSNKQAQAENCRQKFLKLIQDYRIIDSNYKEESKEQAKRQYTIIQPEATDEEVEAAINDVNGQQIFSQALLNANRRGEAKTALAEVQARHQELLKLEKTMAELTQLFNDMEELVIEQQENVDVIDKNVEDAQQDVEQGVGHTNKAVKSARKARKNKIRC
notes: Sso2, yeast t-SNARE, cytosolic domain a.a; 1-270; also called pG707
